Experimental data as given in the supplement of paper PMC11417369.
± gives the standard deviation of the averaged measurements. The list shows a part of the results.

System: PfAP2-G AP2 domain (GST-tagged)
Test: gcPBM binding intensity (ln(normalized median fluorescence intensity)); higher = stronger DNA binding
Method in brief: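 In this array assay, P. falciparum DNA-binding domains with a GST tag, expressed in E. coli, were applied for 1 h to primer-extended double-stranded 36-bp intergenic genomic probes and negative controls on an Agilent 4 × 180k array. Bound protein was visualised with Alexa488 anti-GST antibody at 488 nm. Binding intensity is the highest Masliner-normalised natural-log median intensity across replicate spots of either probe orientation.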

Row | Sequence | gcPBM binding intensity (ln)
1 | AAAAAATACATACATACACACATATATATATATATA [CACACA_site913] | 10.2 ± 0.4
2 | TCCTCTTATAATTCGTGTCCACATATATCATACAAT [XGTACX_site1523] | 11.1 ± 0.64
3 | ATAAAACAAATGAGTACACACACATAAAAATTGAAA [CACACA_site7949] | 11.6 ± 1.2
4 | GAAAATTCTTAAGGCACACACATATAAGATATATAC [CACACA_site6410] | 10.24 ± 0.071
5 | TTATAATATATATCTGCATGTTGCTTTGGGGCTTTA [TGCATGCA_site712] | 9.84 ± 0.14
6 | TATATTAAACAATATACACACATTAATGTAGACATA [CACACA_site8889] | 10.1 ± 0.16
7 | TTTCAGACAAAAAAAAAAAAAAAAAAGAGGAGAATA [CACACA_negctrl_site254] | 9.495 ± 0.035
8 | AAACATTTATACAAAGCACACAATTTTTAACTTTTA [CACACA_site2627] | 9.925 ± 0.007
9 | TTTAAGCAAAGACACACACACATATTTATATTTATA [CACACA_site6295] | 9.99 ± 0.071
10 | AATAAAAAAAAAAAAAAAAAAAAAAACCTGAGGAGT [CACACA_negctrl_site1140] | 9.8 ± 0.18
11 | AACCTTTTAAGAGTTGCACACGTACAAAAAAAAAAA [CACACA_site9159] | 11.3 ± 0.91
12 | TTCATAGAATTATATATTTTAAAAAAAAAAATAATT [CACACA_negctrl_site175] | 9.52 ± 0.12
13 | TTTTTTATAGGACATGCATGTTGTAGAGCTGTATAT [TGCATGCA_site704] | 10.4 ± 0.34
14 | TAATATGCATAAAATTGTACAAACTTACATATAATA [XGTACX_site2752] | 10.9 ± 0.29
15 | TTTTCTTGACCTATTATTCTTCTCATAGTATAATAT [GTGCAC_negctrl_site641] | 10.1 ± 0.26
16 | TAATAAATAAAATAGAGTACAGGGATTTCATTAAAT [XGTACX_site8979] | 11.4 ± 0.82
17 | TATATTACTTATATTTGTACACAGAAATATAAATCA [XGTACX_site13] | 11.3 ± 0.87
18 | TTTTTCATAAGAAGCACACAAAAAATGATAGAGAAT [CACACA_site1417] | 10.5 ± 0.35
19 | TGTCAAAATATGTATACACACAATTTTTTTTTTTTT [CACACA_site2465] | 9.81 ± 0.22
20 | ATTCATTTACCAATGGTGCAATATATTTTTATAATG | 10.2 ± 0.18
21 | AAAGAAAGTACCTTCACACATATAAGAATATAATAT [CACACA_site5214] | 10.8 ± 0.68
22 | AAAAAAAAAATATATTGTACAAATAGATATGTCAAT [XGTACX_site122] | 10.7 ± 0.3

Row | Sequence | gcPBM binding intensity (ln)
23 | TGAAATACGAATTATTGTACTTATGTGTAAGATGGC [XGTACX_site4472] | 11.3 ± 0.81
24 | AAACAAATATGTAGCACACATTCACATAATATATTT [CACACA_site2335] | 10.2 ± 0.18
25 | TTATTTATGTGTAGGGCATGCAATCGTGTTTTTAAA [TGCATGCA_site735] | 10.3 ± 0.3
26 | GTATTTATAATACGGCGTACATAAAAAAAAAAAAAA [XGTACX_site3705] | 11.6 ± 1
27 | AATATATTTTAATATACACACATATATGCTCTTTAA [CACACA_site9371] | 9.95 ± 0.12
28 | TTATTTTTTTTGTGTTGTACAATTTATTACTACTAA [XGTACX_site346] | 11.3 ± 0.82
29 | AGAAAAAAATAATGTACACACACATAGATGTTTATA [CACACA_site4271] | 11.3 ± 0.73
30 | TCAATAATAACAAATGAACACACATATATATGAGCA [CACACA_site8663] | 9.795 ± 0.007
31 | TTTTTTTTTTAATTAACACACATAAATATATATATA [CACACA_site3275] | 9.93 ± 0.45
32 | GAACAATAAATAAAAAAAATAAAAATAAAAATAAAA [TGCATGCA_negctrl_site35] | 9.58
33 | ATAAGTAAATTAGATACACACATGATATCATACATA [CACACA_site1623] | 9.97 ± 0.028
34 | AAAAAAAAAAAAAAAAGTACACAGTAGAATTAAATG [XGTACX_site1843] | 11.7 ± 0.92
35 | ATAAATTTTTTTTTTTTTTTTTTTCTTTTTCTTTGT [CACACA_negctrl_site1231] | 9.42 ± 0.099
36 | CATCTCATATTTTGAAGTACTAAGAAAAGATATAAA [XGTACX_site6867] | 11.2 ± 0.64
37 | AATATATTTGTGTATGTGCGCAGTGTGTAATTTATT [GTGCAC_site9765] | 10.5 ± 0.28
38 | ATATATACCTAAGACACACACATATATATATATATA [CACACA_site764] | 10.2 ± 0.2
39 | AAATGTACAGGACGCACACACATATATATATATATA [CACACA_site3674] | 11.2 ± 0.87
40 | AAGGAAAATATTAACTGTACATATAAAATATATATA [XGTACX_site5310] | 11.2 ± 0.67
41 | TATCATTTATATATGTGTACTTATTTATTTATTTAT [XGTACX_site7961] | 11.5 ± 0.8
42 | TCTTTATCCTTTCTCTTTTTATTAATTATAATATTC [TGCATGCA_negctrl_site584] | 9.985 ± 0.049
43 | ATTATTTGTAATATAACACACACAAAAAAAGACTCG [CACACA_site8487] | 10.3 ± 0.23
44 | ATTATACCGTATTTTGCATGTAGTATTTTCATTTTA [TGCATGCA_site1021] | 10.3 ± 0.11

Row | Sequence | gcPBM binding intensity (ln)
45 | ATTAATTATGTATTTCAACAAAGAAGTGTTATATAT [GTGCAC_negctrl_site215] | 10.1 ± 0.16
46 | AAAGAAAATTAAAAAGAACACACAAATATATATATA [CACACA_site9196] | 9.98 ± 0.46
47 | AATGAATCCTTATATACACACATTATTATAGTATAG [CACACA_site7454] | 9.95 ± 0.042
48 | ATTTATATATATTTATGTACGTATTAATTTTTTTTT [XGTACX_site3877] | 11.5 ± 0.88
49 | ATGTATAATATTTTCACACACAAGAAAAAAGAAAAG [CACACA_site3591] | 10.2 ± 0.18
50 | TTTTATTTATTCCTACTTTTTTATTTATTTATTTAA [XGTACX_negctrl_site415] | 9.79 ± 0.071
51 | ACATTATGTCATAAATGTACACATACATATACATAC [XGTACX_site8998] | 11.2 ± 0.79
52 | CGTATGTATATATATATACACACTTCTGTGATACGA [CACACA_site1949] | 10 ± 0.17
53 | TATCTACTTAAATAAAATAAAAATAATAAATAAAAA [TGCATGCA_negctrl_site312] | 9.77 ± 0.18
54 | ATAAAACAAAGACACACACACATACACAAAAAAAAA [CACACA_site7752] | 10.4 ± 0.47
55 | AATAATCATGATCATAGTACGTATGAATACAAAAAA [XGTACX_site265] | 11 ± 0.62
56 | ATATATATATGTATATGTACTCATTCTTCTGTGTTT [XGTACX_site5014] | 11.2 ± 0.96
57 | TAAGTCAAAACTTTTTTTTCTAAATTTCCATAATTA [GTGCAC_negctrl_site29] | 9.61 ± 0.11
58 | ATATACATTCTATATACATGCATACTTCATTTTGTG [TGCATGCA_site966] | 10.24 ± 0.014
59 | TACATAATAATAAGGCGTACATAAAAATTAAAAATT [XGTACX_site8769] | 11.4 ± 1
60 | AAAACGATTTTTTGCACACACATAATAAGCAGAACA [CACACA_site3871] | 10.3 ± 0.18
61 | AAATGAATTTAACAATGTACACATATATTATAAATA [XGTACX_site1449] | 11.3 ± 0.67
62 | ATTTAATTTTCCAAATGTACTTATATTTTTATGAAA [XGTACX_site6144] | 11.2 ± 0.92
63 | TGAAATGATCTTTAGTTGCACTTAAAAATATATATA | 9.98 ± 0.22
64 | CAAAAAGATAAGGTGTGTACGTATTATAATTTTAAA [XGTACX_site531] | 11.5 ± 0.99
65 | AAAAAAAAAAAAAACACACACATATATATAATATAT [CACACA_site3172] | 9.88 ± 0.16
66 | AAGTATAGTCTTACATATATATATATATATATATAT [GTGCAC_negctrl_site280] | 10.1 ± 0.67

Row | Sequence | gcPBM binding intensity (ln)
67 | GGTATATAAAAATATTGTACTTAAAAAAATATGTAT [XGTACX_site6253] | 11.4 ± 0.99
68 | TATTTCACTTTTTGTCTGCACTAAAATTTTATGGTA | 10.4 ± 0.23
69 | TAGATACATAAACACACACACACATACATATATACA [CACACA_site9139] | 10.1 ± 0.16
70 | TAAGAAATAAATAGTACACACATAGACACCCACCGA [CACACA_site1516] | 11.5 ± 0.93
71 | AGTATACTCAAACACACACACACAAAAAAAAAAAAA [CACACA_site4398] | 10.1 ± 0.42
72 | GTAATATTAATATAATGTACAAAATGAAACATATAT [XGTACX_site6219] | 10.7 ± 0.35
73 | CAGTTTAATTTACATAGTACATAATATTTTAATTTT [XGTACX_site1793] | 10.6 ± 0.33
74 | ACAATATTATTATTTAACCATACACAATTATATGTC [XGTACX_negctrl_site378] | 9.94 ± 0.14
75 | TATATTTAATTACATGAACACACATTATATATTTTT [CACACA_site8969] | 9.845 ± 0.064
76 | TGTAGTATCAATTTTTGTACATAACACATATGTATA [XGTACX_site613] | 11 ± 0.5
77 | ATATATATATATATATGTACATATTATTCTCATTGT [XGTACX_site6259] | 11 ± 0.56
78 | ATGTTCTATAAATATGAACACACGACATATTATTTA [CACACA_site1799] | 9.97 ± 0.014
79 | AAAATATAAATATATTTGAACATGGATCAAATGTAA [GTGCAC_negctrl_site626] | 9.975 ± 0.021
80 | ATACATACATACATACGTACATATGTATATATATAT [XGTACX_site8498] | 11.3 ± 0.81
81 | TATTCATTCTATAAAACACACAAATATTTTTGTATC [CACACA_site666] | 9.72 ± 0.16
82 | AAAACAAACACATTTACACACATAAATAAATCAATT [CACACA_site4122] | 10 ± 0.23
83 | TTTATTTTTCCATATGCACACACACCGTATATATAA [CACACA_site8293] | 10.3 ± 0.16
84 | GTATATGAATGTTCATGTACATAATAAAATATATAA [XGTACX_site250] | 11 ± 0.56
85 | AAATTAAAATATAATACACACATAAAAAAAAAATCA [CACACA_site5918] | 9.92 ± 0.014
86 | ATAAAATATAAAAACGCACACAATTATAAGGGTGTA [CACACA_site177] | 10.02 ± 0.042
87 | ATATATATATATAAAGTGCAAAAATGAAAGTAAGAC [GTGCAC_site9850] | 10.3 ± 0.25
88 | CACGAAAATTTGTAGAGTACATATATAATTAATATA [XGTACX_site3808] | 11.2 ± 0.69
